± gives the standard deviation of the averaged measurements. Some of the results follow.

The experiment has as its system PfAP2-I AP2 domain 3 (GST-tagged). Briefly: gcPBM binding intensity (ln(normalized median fluorescence intensity)); higher = stronger DNA binding. The essentials:
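GST-fused DNA-binding domains of P. falciparum, expressed in E. coli, were applied at about 25 μg on average for 1 h to an Agilent 4 × 180k array of primer-extended double-stranded 36-bp intergenic genomic probes and negative controls. Binding intensity is the highest Masliner-normalised natural-log median intensity across replicate spots of either probe orientation, measured with Alexa488 anti-GST antibody and a 488 nm scan.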
For “CGACTTTTAAAATATACACACATATAAATAAATATA [CACACA_site6523]”, the “gcPBM binding intensity (ln)” value is 7.59 ± 0.35. With “TTACAATATAATAAATGTACATATAACAAATATATA [XGTACX_site2199]”, the “gcPBM binding intensity (ln)” value is 7.67 ± 0.32.

For “TTTTTTTTTTTTTGTAGTACATACTATTTTATTAAT [XGTACX_site950]”, the “gcPBM binding intensity (ln)” value stood at 8.01 ± 0.67.

“AGAATTATATACACAAGTACATAATGACATATATAT [XGTACX_site5617]”: the “gcPBM binding intensity (ln)” value was 7.71 ± 0.49. The result for “TAGATGTATTTTTAAAGTACTTTTTAATATATAATC [XGTACX_site1431]” reads 7.66 ± 0.3; that for “TAAAAAATTATATTCACACACATACACATATATATA [CACACA_site545]”, 7.92 ± 0.76; that for “ATATTAAATATATACAGTACACATTACAATACAATA [XGTACX_site3221]”, 7.84 ± 0.47. On to “CTTTGTAGTTGGTCCACACACATATCTGGAAGAATA [CACACA_site4834]”, for which the “gcPBM binding intensity (ln)” value came out at 8.01 ± 0.39.

Consider “TTTCTTAAACCGTACAGTACACACCTTTATAATGTT [XGTACX_site434]”, for which the “gcPBM binding intensity (ln)” value was determined as 8.23 ± 0.38.

For “TAAGCGTTTTTTAAAACACACATAAGAACTAAATGA [CACACA_site1670]”, the “gcPBM binding intensity (ln)” value is 7.62 ± 0.76. The result for “TATTTTCCATGAGGTAGTACACATTAAAAAATCGTT [XGTACX_site6887]” reads 7.87 ± 0.62; that for “AAGGTTTTGGGTTTTAATTAATTTAATATGATTATA [XGTACX_negctrl_site147]”, 7.76 ± 0.59; that for “TAATATTAAAAAGAGACACACAAAAATATTAAAAAA [CACACA_site3120]”, 7.76 ± 0.88. The result for “TTACACCTTAGGATCTGTACAAATATATGACAAATC [XGTACX_site4333]” reads 7.59 ± 0.56; that for “TTTCAACTTTTGTCATGTACACATAATTTTATTGCA [XGTACX_site6701]”, 8.24 ± 0.51. Take “ATTTATTTATCAAATATTATCTTAAAAAAAAAAGAA [CACACA_negctrl_site1345]”: the “gcPBM binding intensity (ln)” value came out at 7.47 ± 0.54.

In the case of “AACAAAAGAAAAAAATATATATATTCGTCCTATTTT [CACACA_negctrl_site444]”, the “gcPBM binding intensity (ln)” value stood at 7.47 ± 0.55. Turning to “CATCTGGTATCTAATAGTACATATATATAATATCTT [XGTACX_site2774]”, the “gcPBM binding intensity (ln)” value amounted to 7.75 ± 0.52. Take “TTAAAAAATATATACGTTGATATAATACAACTTGAC [CACACA_negctrl_site1551]”: the “gcPBM binding intensity (ln)” value worked out at 7.54 ± 0.52.

Regarding “ATGTGTATATGTTAATGTACAAATTTTGAAAATGCC [XGTACX_site2685]”, the “gcPBM binding intensity (ln)” value was found to be 8.14 ± 0.5. Take “TGTATAACCATAAATTGTACAGAAAAAAGTATAAAA [XGTACX_site1493]”: the “gcPBM binding intensity (ln)” value is 7.84 ± 0.67. For the sequence “TATATATGCATTAAAGTGTTTTTTTTTTTTTTTTTT [CACACA_negctrl_site1353]”, the “gcPBM binding intensity (ln)” value was 9.12 ± 0.33. The result for “ATTTTTTTTTTTTATGGTACACACACGCGTATGGTT [XGTACX_site3888]” reads 8.04 ± 0.65. The result for “AAGGAAAAACCATTCGCACACACACCGAATATATAA [CACACA_site8403]” reads 8.13 ± 0.63; that for “TATATCAAATTCTAAACATGCACAAAAAACTTATAA [TGCATGCA_site510]”, 8.66 ± 0.64. As to “TATTTATATAGACACACACACATATATTTATATTTT [CACACA_site7240]”, the “gcPBM binding intensity (ln)” value worked out at 7.85 ± 0.35.

For “ACTTAAATAATACATACACACATGTACATACAGAAA [CACACA_site1595]”, the “gcPBM binding intensity (ln)” value amounted to 8.24 ± 0.38. The figure for “TTTACATTTAATAAAAGTACTTATTTCATATACATA [XGTACX_site659]” is 7.69 ± 0.28; for “TAATTCTTTATAATAACACACATTCATATACAATAA [CACACA_site2499]” it is 7.71 ± 0.49; for “GGTATTACCTGTTTGTTATGTAGATGTTGCTAGGAT [GTGCAC_negctrl_site736]” it is 8.14 ± 0.63. The figure for “ATACCAATAATATACATACACACATAAAGGTTTATA [CACACA_site314]” is 7.77 ± 0.51. The result for “AAGAAAAACTAAAGAGTTCTGTTCATATCTCTTTGG [TGCATGCA_negctrl_site549]” reads 7 ± 0.75; that for “AATTTAAAGTTTTTTTTTTTTTTTTTTTTTTTTTTG [CACACA_negctrl_site1082]”, 7.39 ± 0.31. Consider “TGTATTATAATATTATGTACTTATAAATTTTATATT [XGTACX_site6432]”, for which the “gcPBM binding intensity (ln)” value was 7.69 ± 0.42.

On to “ATATTATTATAAAGTGGTACAATAAATGGTATTATA [XGTACX_site391]”, for which the “gcPBM binding intensity (ln)” value was found to be 8.02 ± 0.48.

Consider “TGGGTGGTAAAAATGTGTACATAAAAAAATAATGTT [XGTACX_site2235]”, for which the “gcPBM binding intensity (ln)” value was determined as 8.695 ± 0.078. As for “TCTCACATTCTTATGGGTACACATGAGAAATTATAA [XGTACX_site6799]”, the “gcPBM binding intensity (ln)” value was found to be 7.99 ± 0.26.

With “AATATACACCCGTGTACACAAATATTTACAAAACGT [CACACA_site4786]”, the “gcPBM binding intensity (ln)” value was found to be 8.66 ± 0.58.

“AAAAGGAATGAAAATTCACACAACTATAAATACATA [CACACA_site5337]”: the “gcPBM binding intensity (ln)” value was found to be 7.49 ± 0.66. For “GTTACACCAACAAACACACACACACCCACCCACAAA [CACACA_site2427]”, the “gcPBM binding intensity (ln)” value was determined as 8.41 ± 0.71. The result for “TTAGAATTTAGAGAAGTGCATATTAAGTTACGAATT [GTGCAC_site9861]” reads 9.71 ± 0.12.

Turning to “AAAAAAAATATATATATTAAAGTTTTAATTTTTATA [CACACA_negctrl_site497]”, the “gcPBM binding intensity (ln)” value came out at 7.21 ± 0.41.

Consider “ATTATATATATATATAGTACTTTTTTTTTTTTTTTT [XGTACX_site8801]”, for which the “gcPBM binding intensity (ln)” value was 8.32 ± 0.4.

“TTATTGGTTATATAAAGTACATTTGAAATATAATTG [XGTACX_site6553]”: the “gcPBM binding intensity (ln)” value turned out to be 7.67 ± 0.29.
